According to PubChem BioAssay AID342 (DTP/NCI, 2004):
Some entries of the source have several records that differ or are many. The list is limited to them. The source may hold further records. Values that stand side by side are repeated measurements (runs, samples, wells, individuals or studies). Additions like (4×) count equal records among those shown.

Test system: Swiss mice, Sarcoma 180 sc, mean tumor weight T/C
Experiment: NCI In Vivo Anticancer Drug Screen. Data for tumor model Sarcoma 180 (subcutaneous) in Swiss mice
Conditions: endpoint: mean tumor weight, higher = larger tumour
Protocol: The antitumor activity of compounds was measured in mice bearing transplantable tumors. Survival or tumor size were measured and the results are expressed as the measurement made in the treated group (T) divided by the measurement made in the vehicle treated control group (C). The tumor model used in this assay is Sarcoma 180 (subcutaneous) in Swiss mice

[1] = dose: 125.0 mg/kg/injection, schedule: Q#A X014 (ip), vehicle: methylcellulose (MC)
[2] = dose: 0.5 mg/kg/injection, schedule: Q01DX007 (sc), vehicle: steriod suspending solution
[3] = dose: 500.0 mg/kg/injection, schedule: Q01DX007 (ip), vehicle: carboxymethylcellulose (CMC)
[4] = dose: 2.0 mg/kg/injection, schedule: Q01DX007 (ip), vehicle: carboxymethylcellulose (CMC)

O=C(O)CC[S-].[Ag+]
T/C (dose: 83.0 mg/kg/injection, schedule: Q#A X014 (ip), vehicle: methylcellulose (MC)): 49 % of control, 74 % of control, 110 % of control
T/C [1]: 36 % of control, 55 % of control, 83 % of control

CC(O)C(NCNC(=O)C1=C(O)C2(O)C(=O)C3=C(O)c4c(O)cccc4C(C)(O)C3CC2C(N(C)C)C1=O)C(=O)O (stereo not drawn)
T/C (dose: 111.0 mg/kg/injection, schedule: Q#A X014 (ip), vehicle: saline): 60 % of control and 107 % of control
T/C (dose: 166.5 mg/kg/injection, schedule: Q#A X014 (ip), vehicle: saline): 51 % of control and 87 % of control

[N-]=[N+]=CC(=O)NCC(=O)NN
T/C (dose: 600.0 mg/kg/injection, schedule: Q01DX007 (ip), vehicle: other): 26 % of control and 78 % of control

CCOC(=O)C1=C(C)NC(C)=C(C(=O)OCC)C1C
T/C (dose: 62.5 mg/kg/injection, schedule: Q01DX007 (ip), vehicle: other): 22 % of control and 53 % of control
T/C (dose: 125.0 mg/kg/injection, schedule: Q01DX007 (ip), vehicle: other): 22 % of control, 66 % of control, 74 % of control
T/C (dose: 250.0 mg/kg/injection, schedule: Q01DX007 (ip), vehicle: other): 9 % of control, 42 % of control, 53 % of control

Nc1nc(=S)c2ncn(C3OC(COC(=O)c4ccc([N+](=O)[O-])cc4)C(OC(=O)c4ccc([N+](=O)[O-])cc4)C3OC(=O)c3ccc([N+](=O)[O-])cc3)c2[nH]1 (stereo not drawn)
T/C (dose: 10.0 mg/kg/injection, schedule: Q01DX007 (ip), vehicle: carboxymethylcellulose (CMC)): 40 % of control and 85 % of control
T/C (dose: 23.0 mg/kg/injection, schedule: Q01DX007 (ip), vehicle: carboxymethylcellulose (CMC)): 24 % of control, 34 % of control, 67 % of control

CS(=O)(=O)OCCC(=O)N1CCN(C(=O)CCOS(C)(=O)=O)CC1
T/C (dose: 44.0 mg/kg/injection, schedule: Q#A X014 (ip), vehicle: methylcellulose (MC)): 23 % of control, 43 % of control, 60 % of control
T/C (dose: 50.0 mg/kg/injection, schedule: Q01DX007 (ip), vehicle: saline): 60 % of control and 121 % of control
T/C (dose: 100.0 mg/kg/injection, schedule: Q01DX007 (ip), vehicle: saline): 47 % of control and 82 % of control

CC(=O)OCC(=O)C1(O)C(C)CC2C3C=C(C)C4=Cc5c(cnn5-c5ccccc5)CC4(C)C3C(O)CC21C (stereo not drawn)
T/C [2]: 12 % of control, 52 % of control, 93 % of control
T/C (dose: 1.0 mg/kg/injection, schedule: Q01DX007 (sc), vehicle: steriod suspending solution): 13 % of control, 37 % of control, 79 % of control
T/C (dose: 2.0 mg/kg/injection, schedule: Q01DX007 (sc), vehicle: steriod suspending solution): 38 % of control and 95 % of control
T/C (dose: 4.0 mg/kg/injection, schedule: Q01DX007 (sc), vehicle: steriod suspending solution): 20 % of control and 58 % of control

Cn1cc(F)c(=O)[nH]c1=O
T/C (dose: 40.0 mg/kg/injection, schedule: Q01DX007 (ip), vehicle: carboxymethylcellulose (CMC)): 73 % of control and 123 % of control

C=CCNc1ccc(C)cc1
T/C (dose: 45.0 mg/kg/injection, schedule: Q01DX007 (ip), vehicle: carboxymethylcellulose (CMC)): 44 % of control and 92 % of control
T/C (dose: 70.0 mg/kg/injection, schedule: Q01DX007 (ip), vehicle: carboxymethylcellulose (CMC)): 26 % of control and 118 % of control

CCCC(=O)OCC1OC(n2cnc3c(=S)nc[nH]c32)C(OC(=O)CCC)C1OC(=O)CCC (stereo not drawn)
T/C (dose: 31.0 mg/kg/injection, schedule: Q01DX007 (ip), vehicle: carboxymethylcellulose (CMC)): 41 % of control, 64 % of control, 117 % of control
T/C (dose: 62.0 mg/kg/injection, schedule: Q01DX007 (ip), vehicle: carboxymethylcellulose (CMC)): 15 % of control, 45 % of control, 103 % of control
T/C (dose: 125.0 mg/kg/injection, schedule: Q01DX007 (ip), vehicle: carboxymethylcellulose (CMC)): 4 % of control, 45 % of control, 50 % of control

O=C(O)C(=O)O.O=C([O-])C(=O)O.O=C([O-])C(=O)O.O=C([O-])C(=O)[O-].[K+].[U]
T/C (dose: 3.5 mg/kg/injection, schedule: Q#A X014 (ip), vehicle: saline): 44 % of control, 64 % of control, 98 % of control
T/C (dose: 5.0 mg/kg/injection, schedule: Q#A X014 (ip), vehicle: saline): 51 % of control, 74 % of control, 80 % of control

CCCCC(=O)OCC1OC(n2cnc3c(=S)nc[nH]c32)C(OC(=O)CCCC)C1OC(=O)CCCC (stereo not drawn)
T/C [3]: 33 % of control and 74 % of control

O=C(Nc1ccc2cc(S(=O)(=O)O)ccc2c1)c1ccc(N=Nc2c(S(=O)(=O)O)cc3cc(S(=O)(=O)O)cc(NC(=O)c4ccccc4)c3c2O)cc1
T/C (dose: 27.5 mg/kg/injection, schedule: Q#A X014 (ip), vehicle: methylcellulose (MC)): 52 % of control, 73 % of control, 98 % of control
T/C (dose: 62.5 mg/kg/injection, schedule: Q#A X014 (ip), vehicle: methylcellulose (MC)): 33 % of control, 60 % of control, 92 % of control

Cc1nc(C(N)=O)nc2ccccc12
T/C (dose: 31.25 mg/kg/injection, schedule: Q#A X014 (ip), vehicle: methylcellulose (MC)): 65 % of control and 94 % of control
T/C [1]: 40 % of control and 74 % of control

COC12C(COC(N)=O)C3=C(C(=O)C(C)=C(N)C3=O)N1CC1C2N1C (stereo not drawn)
T/C (dose: 2.5 mg/kg/injection, schedule: Q#A X014 (ip), vehicle: carboxymethylcellulose (CMC)): 42 % of control and 93 % of control

Nc1ccc(C(=O)O)c(O)c1
T/C (dose: 191.75 mg/kg/injection, schedule: Q01DX007 (ip), vehicle: carboxymethylcellulose (CMC)): 75 % of control and 105 % of control
T/C (dose: 383.5 mg/kg/injection, schedule: Q01DX007 (ip), vehicle: carboxymethylcellulose (CMC)): 73 % of control, 84 % of control, 111 % of control

C[C@@H]1C[C@@H]([C@H](O)CC2CC(=O)NC(=O)C2)C(=O)[C@@H](C)C1
T/C (dose: 1.5 mg/kg/injection, schedule: Q#A X014 (ip), vehicle: carboxymethylcellulose (CMC)): 78 % of control and 111 % of control
T/C (dose: 6.0 mg/kg/injection, schedule: Q#A X014 (ip), vehicle: carboxymethylcellulose (CMC)): 51 % of control and 84 % of control
T/C (dose: 16.0 mg/kg/injection, schedule: Q01DX007 (ip), vehicle: carboxymethylcellulose (CMC)): 48 % of control, 109 % of control, 122 % of control

OC(CBr)C(O)C(O)C(O)CBr (stereo not drawn)
T/C (dose: 200.0 mg/kg/injection, schedule: Q01DX007 (ip), vehicle: saline): 59 % of control and 86 % of control

CCOC(=O)CCCc1ccc(N/N=N/c2nc[nH]c2C(N)=O)cc1
T/C (dose: 93.0 mg/kg/injection, schedule: Q01DX007 (ip), vehicle: carboxymethylcellulose (CMC)): 47 % of control and 94 % of control

CC(=O)OCC(=O)[C@@]1(O)CC[C@H]2[C@@H]3C[C@H](C)C4=CC(=O)C=C[C@]4(C)[C@@]3(F)[C@@H](O)C[C@@]21C
T/C (dose: 82.0 mg/kg/injection, schedule: Q01DX007 (sc), vehicle: steriod suspending solution): 12 % of control and 61 % of control

CCC(c1ccc(O)cc1)C(CC)c1ccc(OC)cc1 (stereo not drawn)
T/C (dose: 0.65 mg/kg/injection, schedule: Q#A X014 (sc), vehicle: steriod suspending solution): 44 % of control and 99 % of control

CC(=O)[C@@]1(O)[C@H](C)C[C@H]2[C@@H]3C=C(C)C4=Cc5c(cnn5-c5ccccc5)C[C@]4(C)[C@H]3[C@@H](O)C[C@@]21C
T/C (dose: 0.25 mg/kg/injection, schedule: Q01DX007 (sc), vehicle: steriod suspending solution): 33 % of control, 82 % of control, 84 % of control
T/C (dose: 0.35 mg/kg/injection, schedule: Q01DX007 (sc), vehicle: steriod suspending solution): 24 % of control, 76 % of control, 111 % of control
T/C [2]: 22 % of control and 50 % of control

C[C@]12CCC(=O)C=C1[C@@H](F)C[C@@H]1[C@@H]2[C@@H](O)C[C@@]2(C)[C@H]1CC[C@]2(O)C(=O)CO
T/C (dose: 83.0 mg/kg/injection, schedule: Q01DX007 (sc), vehicle: steriod suspending solution): 35 % of control and 76 % of control

CN(C)/C=N/c1nccs1
T/C (dose: 55.5 mg/kg/injection, schedule: Q01DX007 (ip), vehicle: saline): 59 % of control and 155 % of control
T/C (dose: 187.5 mg/kg/injection, schedule: Q01DX007 (ip), vehicle: saline): 16 % of control and 61 % of control

O=C(O)c1ccc(N=NSc2ncnc3nc[nH]c23)cc1O
T/C [4]: 28 % of control, 33 % of control, 88 % of control
T/C (dose: 4.0 mg/kg/injection, schedule: Q01DX007 (ip), vehicle: carboxymethylcellulose (CMC)): 12 % of control and 43 % of control

O=C(N[C@H](CO)[C@H](O)c1ccc([N+](=O)[O-])cc1)C(Cl)Cl
T/C [3]: 78 % of control and 111 % of control (2×)

Cc1ccc(NCC2(/N=C/c3ccccc3)OC(CO)C(O)C2O)cc1 (stereo not drawn)
T/C (dose: 166.5 mg/kg/injection, schedule: Q#A X014 (ip), vehicle: methylcellulose (MC)): 54 % of control and 81 % of control
T/C (dose: 375.0 mg/kg/injection, schedule: Q#A X014 (ip), vehicle: methylcellulose (MC)): 27 % of control and 100 % of control

CN(Cc1cnc2nc(N)nc(N)c2n1)c1ccc(C(=O)N[C@@H](CCC(=O)O)C(=O)O)cc1
T/C (dose: 0.5 mg/kg/injection, schedule: Q01DX007 (ip), vehicle: water): 19 % of control, 21 % of control, 46 % of control
T/C [4]: 43 % of control and 93 % of control
